Data on twelve molecules can be found in the supplement of paper PMC4604168 (melanoma cell lines).

The list shows a part of the results. Most values come without repeats; read them as rough.
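Note: cell number obtained by counting DAPI-stained nuclei in high-throughput microscope images with image analysis software, screen run in 1,536-well plates.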

In this experiment the test system is MEL-HO. Briefly: cell count relative to DMSO control; melanoma cells; higher = more viable cells. The settings on record: library dose: low library concentration; 72 h.
For the molecule `CCN(CC)CCNC(=O)c1c(C)[nH]c(/C=C2\C(=O)Nc3ccc(F)cc32)c1C` [sunitinib] + CC(=O)c1c(C)c2cnc(Nc3ccc(N4CCNCC4)cn3)nc2n(C2CCCC2)c1=O [palbociclib] (first compound 0.4 µM, partner dose 0.04 µM), the cell count stood at 92.2%.
To `C[C@]1(O)C[C@@H](c2nc(-c3ccc4ccc(-c5ccccc5)nc4c3)c3c(N)nccn32)C1` + CNC(=O)c1cc(Oc2ccc(NC(=O)Nc3ccc(Cl)c(C(F)(F)F)c3)cc2)ccn1 [sorafenib] (first compound 0.4 µM, partner dose 0.4 µM) belongs 102%; to `Cn1cnc2c(F)c(Nc3ccc(Br)cc3Cl)c(C(=O)NOCCO)cc21` [selumetinib] + COc1ccc(Cl)c(Nc2nc3ccccc3nc2NS(=O)(=O)c2cccc(NC(=O)C(C)(C)N)c2)c1 [XL147] (first compound 0.015 µM, partner dose 0.8 µM), 91.2%; to `Cn1cnc2c(F)c(Nc3ccc(Br)cc3Cl)c(C(=O)NOCCO)cc21` [selumetinib] + CN(c1ncccc1CNc1nc(Nc2ccc3c(c2)CC(=O)N3)ncc1C(F)(F)F)S(C)(=O)=O [PF562271] (first compound 0.015 µM, partner dose 0.08 µM), 90.8%.
In the case of `C[C@]1(O)C[C@@H](c2nc(-c3ccc4ccc(-c5ccccc5)nc4c3)c3c(N)nccn32)C1` + CCCCCCCCc1ccc(CCC(N)(CO)CO)cc1 [fingolimod] (first compound 0.4 µM, partner dose 2 µM) it was 89.9%; in that of `Cn1cnc2c(F)c(Nc3ccc(Br)cc3Cl)c(C(=O)NOCCO)cc21` [selumetinib] + CCCCCCCCc1ccc(CCC(N)(CO)CO)cc1 [fingolimod] (first compound 0.015 µM, partner dose 2 µM), 83.6%; in that of `CCN(CC)CCNC(=O)c1c(C)[nH]c(/C=C2\C(=O)Nc3ccc(F)cc32)c1C` [sunitinib] + CN1CCN(c2ccc3nc(-c4c(N)c5c(F)cccc5[nH]c4=O)[nH]c3c2)CC1 [Dovitinib] (first compound 0.4 µM, partner dose 0.1 µM), 97.9%.
In the case of `Cn1cnc2c(F)c(Nc3ccc(Br)cc3Cl)c(C(=O)NOCCO)cc21` [selumetinib] + Cn1c(Nc2ccc(C(F)(F)F)cc2)nc2cc(Oc3ccnc(-c4ncc(C(F)(F)F)[nH]4)c3)ccc21 [CHIR265] (first compound 0.015 µM, partner dose 0.08 µM) it was 70.4%; in that of `COc1cc([C@@H]2c3cc4c(cc3[C@@H](O[C@@H]3O[C@@H]5CO[C@@H](C)O[C@H]5[C@H](O)[C@H]3O)[C@H]3COC(=O)[C@H]23)OCO4)cc(OC)c1O` [etoposide] + O=C(Nc1cc(C(F)(F)F)cc(C(F)(F)F)c1)c1cc(Cl)ccc1O [IMD0354] (first compound 0.02 µM, partner dose 0.016 µM), 91.3%.
Consider `CCN(CC)CCNC(=O)c1c(C)[nH]c(/C=C2\C(=O)Nc3ccc(F)cc32)c1C` [sunitinib] + CC(=O)O[C@@]12CO[C@@H]1C[C@H](O)[C@@]1(C)C(=O)[C@H](O)C3=C(C)[C@@H](OC(=O)[C@H](O)[C@@H](NC(=O)OC(C)(C)C)c4ccccc4)C[C@@](O)([C@@H](OC(=O)c4ccccc4)[C@H]21)C3(C)C [Docetaxel] (first compound 0.4 µM, partner dose 0.0001 µM), for which the cell count is 67.8%.
To `C[C@]1(O)C[C@@H](c2nc(-c3ccc4ccc(-c5ccccc5)nc4c3)c3c(N)nccn32)C1` + CN1CCN(c2ccc3nc(-c4c(N)c5c(F)cccc5[nH]c4=O)[nH]c3c2)CC1 [Dovitinib] (first compound 0.4 µM, partner dose 0.1 µM) belongs 95.6%.
In the case of `C[C@]1(O)C[C@@H](c2nc(-c3ccc4ccc(-c5ccccc5)nc4c3)c3c(N)nccn32)C1` + CC(C)C[C@H](NC(=O)[C@H](Cc1ccccc1)NC(=O)c1cnccn1)B(O)O [Bortezomib] (first compound 0.4 µM, partner dose 0.001 µM) it was 101%.
